{"source": "paper PMC4336329", "about": "(PLoS ONE, 2015)", "note": "The whole screen tested about 310,000 compounds, of which about 14,000 (4.5%) showed an effect of 50% or more. Effects have a minus sign here. The list shows a part of the results.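 Note: peak tail current of the secondary pulse compared with the same well before compound.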"}
{"target": "human ether-à-go-go-related gene (hERG) potassium channel (human, UniProt Q12809)", "sequence (Q12809 whole entry, looked up)": "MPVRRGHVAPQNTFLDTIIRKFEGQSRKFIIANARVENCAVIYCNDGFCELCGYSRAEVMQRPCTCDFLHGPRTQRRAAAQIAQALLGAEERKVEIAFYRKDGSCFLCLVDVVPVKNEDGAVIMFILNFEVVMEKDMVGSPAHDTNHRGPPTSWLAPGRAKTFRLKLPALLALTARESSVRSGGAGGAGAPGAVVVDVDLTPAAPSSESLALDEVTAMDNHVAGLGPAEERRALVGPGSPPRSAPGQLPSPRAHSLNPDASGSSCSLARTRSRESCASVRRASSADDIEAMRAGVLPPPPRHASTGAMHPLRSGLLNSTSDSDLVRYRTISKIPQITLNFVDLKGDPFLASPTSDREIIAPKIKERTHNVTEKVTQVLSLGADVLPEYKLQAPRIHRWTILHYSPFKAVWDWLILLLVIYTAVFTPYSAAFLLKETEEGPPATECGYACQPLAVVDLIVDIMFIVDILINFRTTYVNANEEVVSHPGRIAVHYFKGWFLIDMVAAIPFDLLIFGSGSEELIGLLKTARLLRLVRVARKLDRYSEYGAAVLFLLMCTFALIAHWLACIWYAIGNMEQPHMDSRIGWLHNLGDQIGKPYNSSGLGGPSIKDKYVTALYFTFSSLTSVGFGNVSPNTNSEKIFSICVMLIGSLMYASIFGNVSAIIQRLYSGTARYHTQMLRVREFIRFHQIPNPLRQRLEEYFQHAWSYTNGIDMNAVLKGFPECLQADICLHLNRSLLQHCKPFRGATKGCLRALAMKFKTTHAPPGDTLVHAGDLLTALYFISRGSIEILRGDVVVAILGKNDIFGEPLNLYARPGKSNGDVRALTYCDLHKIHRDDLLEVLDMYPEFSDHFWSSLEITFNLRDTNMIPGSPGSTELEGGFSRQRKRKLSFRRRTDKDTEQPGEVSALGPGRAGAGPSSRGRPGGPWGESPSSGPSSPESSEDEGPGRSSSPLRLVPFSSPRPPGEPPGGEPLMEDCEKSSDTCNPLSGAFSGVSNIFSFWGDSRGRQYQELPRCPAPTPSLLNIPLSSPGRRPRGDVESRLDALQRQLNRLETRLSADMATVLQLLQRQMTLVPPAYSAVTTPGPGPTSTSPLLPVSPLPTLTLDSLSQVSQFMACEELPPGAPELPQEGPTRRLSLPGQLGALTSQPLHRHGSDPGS", "test": "primary screen, population patch clamp on CHO cells stably expressing hERG", "units": {"hERG current change (%, negative = inhibition) at 10uM": "%"}}
{"smiles": "Cc1noc(C)c1COC(=O)c1cc(S(=O)(=O)N2CCOCC2)ccc1F", "hERG current change (%, negative = inhibition) at 10uM": -2.88}
{"smiles": "Nc1ncc([N+](=O)[O-])c(Oc2ccccc2F)n1", "hERG current change (%, negative = inhibition) at 10uM": 24.7}
{"smiles": "CC1(c2ccc(Cl)cc2Cl)OCC(Cn2cncn2)O1.O=[N+]([O-])O", "note": "(stereo not drawn)", "hERG current change (%, negative = inhibition) at 10uM": 8.39}
{"smiles": "O=C(N[C@H]1CCC(=O)N(CCSc2ccc(Br)cc2)CC1)OCc1ccccc1", "hERG current change (%, negative = inhibition) at 10uM": -29.2}
{"smiles": "CC1CCCN(C/C=C/c2ccccc2[N+](=O)[O-])C1", "note": "(stereo not drawn)", "hERG current change (%, negative = inhibition) at 10uM": -23.1}
{"smiles": "COC(=O)c1cc(-c2ccc(Br)cc2)on1", "hERG current change (%, negative = inhibition) at 10uM": 8.48}
{"smiles": "COc1ccc(CNC(=O)c2nnn(Cc3ccc(OC)cc3)c2N)cc1", "hERG current change (%, negative = inhibition) at 10uM": -1}
{"smiles": "CCOc1ccccc1C(=O)Nc1ccccc1-c1ccccc1", "hERG current change (%, negative = inhibition) at 10uM": 1.71}
{"smiles": "O=C(Oc1nsnc1N1CCOCC1)c1ccccc1", "hERG current change (%, negative = inhibition) at 10uM": 13.3}
{"smiles": "COc1ccc(Cl)cc1N(CC(=O)Nc1cccc(SC)c1)S(C)(=O)=O", "hERG current change (%, negative = inhibition) at 10uM": -9.58}
{"smiles": "Cc1ccc(CN2CCSCC2)c(C)c1", "hERG current change (%, negative = inhibition) at 10uM": 16.9}
{"smiles": "CCOc1ccc(S(=O)(=O)NCCC(=O)NCC(c2ccc(F)cc2)N2CCOCC2)cc1", "note": "(stereo not drawn)", "hERG current change (%, negative = inhibition) at 10uM": -9.62}
{"smiles": "COc1ccc(/C=C/C(=O)NC(=S)N2CCCC(C(N)=O)C2)cc1", "note": "(stereo not drawn)", "hERG current change (%, negative = inhibition) at 10uM": 16.2}
{"smiles": "COc1cc(/C=N/NC(=O)c2cc(-c3ccccc3)nc3ccccc23)cc(OC)c1O", "hERG current change (%, negative = inhibition) at 10uM": 12.5}
{"smiles": "O=C1NC(=S)N/C1=C\\c1cccc([N+](=O)[O-])c1", "hERG current change (%, negative = inhibition) at 10uM": 14.7}
{"smiles": "c1ccc(N2N=C(c3cccs3)CC2c2ccco2)cc1", "note": "(stereo not drawn)", "hERG current change (%, negative = inhibition) at 10uM": 2.24}
{"smiles": "CCn1cc([N+](=O)[O-])c(C(=O)Nc2ccn(C34CC5CC(CC(C5)C3)C4)n2)n1", "hERG current change (%, negative = inhibition) at 10uM": -1.11}
{"smiles": "O=C(c1cccc(NS(=O)(=O)c2ccc(Br)cc2)c1)N1CCCCC1", "hERG current change (%, negative = inhibition) at 10uM": -6.08}
{"smiles": "CCOc1cc(/C=C(\\C#N)c2nc(-c3cccs3)c(NC(C)=O)s2)ccc1O", "hERG current change (%, negative = inhibition) at 10uM": -8.81}
{"smiles": "Cc1nn(-c2ccccc2)c(C)c1C(=O)OCC(=O)N(C)c1ccccc1", "hERG current change (%, negative = inhibition) at 10uM": -10.4}
{"smiles": "Cc1ccc(C)c(S(=O)(=O)N2CCC(c3nc4c(nnn4Cc4ccc5c(c4)OCCO5)c(=O)[nH]3)CC2)c1", "hERG current change (%, negative = inhibition) at 10uM": 21.3}
{"smiles": "CS(=O)(=O)c1ccc(N)c(SSc2cc(S(C)(=O)=O)ccc2N)c1", "hERG current change (%, negative = inhibition) at 10uM": 8.37}
{"smiles": "Clc1ccc(Cn2cnc3ccccc32)cc1", "hERG current change (%, negative = inhibition) at 10uM": 7.95}
{"smiles": "CC(CN1CCCC1)OC(=O)c1ccccc1Cl.Cl", "note": "(stereo not drawn)", "hERG current change (%, negative = inhibition) at 10uM": 2.62}
{"smiles": "O=C(COC(=O)c1ccc(O)cc1O)Nc1ncc(Cl)cc1Cl", "hERG current change (%, negative = inhibition) at 10uM": -7.26}
{"smiles": "CCCN(CC(=O)Nc1ccccc1OC)C(=O)CCC(=O)c1ccc(OCC)cc1", "hERG current change (%, negative = inhibition) at 10uM": -48.9}
{"smiles": "CCOC(=O)CSc1nn(-c2ccccc2)c(=S)s1", "hERG current change (%, negative = inhibition) at 10uM": -5.85}
{"smiles": "O=C(NC(=S)NCc1ccccc1)c1cccc(Cl)c1", "hERG current change (%, negative = inhibition) at 10uM": 10.9}
{"smiles": "COc1ccc([C@H]2C=C(C(=O)O)O[C@@H](OCCCCO)C2)cc1", "hERG current change (%, negative = inhibition) at 10uM": 1.99}
{"smiles": "O=C(Nc1cc(Oc2ccc(Cl)cc2)cc([N+](=O)[O-])c1)c1ccco1", "hERG current change (%, negative = inhibition) at 10uM": 15}
{"smiles": "O=C(NCC1CCCO1)c1ccc(NC(=O)c2ccc([N+](=O)[O-])cc2)cc1", "note": "(stereo not drawn)", "hERG current change (%, negative = inhibition) at 10uM": -2.58}
{"smiles": "CSC1=NC2(C)CCCCC2C12C=CC(=O)C=C2", "note": "(stereo not drawn)", "hERG current change (%, negative = inhibition) at 10uM": -9.44}
{"smiles": "CN(Cc1c(F)cccc1Cl)C(=O)c1ccc(COc2ccccc2)cc1", "hERG current change (%, negative = inhibition) at 10uM": 9.06}
{"smiles": "O=C1NC(=O)c2cc(NC(=O)C3COc4ccccc4O3)ccc21", "note": "(stereo not drawn)", "hERG current change (%, negative = inhibition) at 10uM": 2.93}
{"smiles": "COC(=O)C1Cc2ccccc2CN1S(=O)(=O)c1ccc(F)cc1", "note": "(stereo not drawn)", "hERG current change (%, negative = inhibition) at 10uM": -9.62}
{"smiles": "COc1ccc(/C(N)=N/OC(=O)c2c(-c3ccccc3Cl)noc2C)cc1OC", "hERG current change (%, negative = inhibition) at 10uM": 4.73}
{"smiles": "CCn1c(CC(=O)Nc2ccccc2F)nnc1SCC(=O)NC1CCCCC1", "hERG current change (%, negative = inhibition) at 10uM": 16.2}
{"smiles": "CCc1ccc(CNCc2ccc(OCC(O)CN(C)Cc3ccccc3)cc2)nc1", "note": "(stereo not drawn)", "hERG current change (%, negative = inhibition) at 10uM": -17.4}
{"smiles": "CCC1COC(c2cccn2Cc2ccccc2Cl)=N1", "note": "(stereo not drawn)", "hERG current change (%, negative = inhibition) at 10uM": 9.79}
{"smiles": "CN(C)C(=S)NC(=NCc1ccc([N+](=O)[O-])cc1)c1ccccc1", "hERG current change (%, negative = inhibition) at 10uM": -90.7}
{"smiles": "O=c1cc(CSc2n[nH]c(=O)n2C2CC2)c2ccc(O)cc2o1", "hERG current change (%, negative = inhibition) at 10uM": 5.98}
{"smiles": "COc1cccc2cc(C(=O)OC(C)C(=O)c3ccc(C)cc3)c(=O)oc12", "note": "(stereo not drawn)", "hERG current change (%, negative = inhibition) at 10uM": 10.7}
{"smiles": "Cc1c(Br)c(C(F)(F)F)nn1CC(=O)N1CCCC1", "hERG current change (%, negative = inhibition) at 10uM": -2.9}
{"smiles": "CCOC(=O)c1cccc(NC(=O)C2CCC(CNc3c(N4CCOCC4)c(=O)c3=O)CC2)c1", "note": "(stereo not drawn)", "hERG current change (%, negative = inhibition) at 10uM": 10.2}
{"smiles": "COc1cnn(-c2ccc(C)cc2)c(=O)c1Cl", "hERG current change (%, negative = inhibition) at 10uM": 14.2}
{"smiles": "Clc1ccc(Oc2nc3c(Cl)cccc3s2)cc1Cl", "hERG current change (%, negative = inhibition) at 10uM": 6.55}
{"smiles": "COC(=O)c1ccc(N=NN2CCCCC2)cc1", "hERG current change (%, negative = inhibition) at 10uM": 11.2}
{"smiles": "COc1cc(OC)c2c(-c3ccccc3)cc(=O)oc2c1C(CC(=O)N1CCN(c2ccccc2)CC1)c1ccc(N(C)C)cc1", "note": "(stereo not drawn)", "hERG current change (%, negative = inhibition) at 10uM": 20.7}
{"smiles": "CCOc1cccc(C(=O)NC2=NCCS2)c1", "hERG current change (%, negative = inhibition) at 10uM": -12.9}
{"smiles": "Cn1c(=NC(=O)CS(=O)(=O)c2ccc(F)cc2)sc2ccccc21", "hERG current change (%, negative = inhibition) at 10uM": -7.8}
{"smiles": "O=c1[nH]c2ccccc2cc1CN(CC1CCCO1)S(=O)(=O)c1ccccc1", "note": "(stereo not drawn)", "hERG current change (%, negative = inhibition) at 10uM": -10.3}
{"smiles": "CC1CCN(S(=O)(=O)N2CCC(C(=O)NCCc3ccccc3)CC2)CC1", "hERG current change (%, negative = inhibition) at 10uM": 2.8}
{"smiles": "Cc1cccc(NC(=O)CN(CCc2ccccc2)S(C)(=O)=O)c1", "hERG current change (%, negative = inhibition) at 10uM": 0.679}
{"smiles": "O=c1oc2c(-c3cccc(F)c3)cc(O)cc2s1", "hERG current change (%, negative = inhibition) at 10uM": 8.45}
{"smiles": "COc1cc(C)c(S(=O)(=O)NOCc2ccccc2)c(C)c1C", "hERG current change (%, negative = inhibition) at 10uM": -28.6}
{"smiles": "CCC1CCCCN1C(=O)Nc1cc(Cl)ccc1OC", "note": "(stereo not drawn)", "hERG current change (%, negative = inhibition) at 10uM": 9.23}
{"smiles": "COc1ccccc1C(=O)N1CCN(Cc2c[nH]c3ccccc23)CC1.O=C(O)C(=O)O", "hERG current change (%, negative = inhibition) at 10uM": -19.7}
